Measured values taken from the supplement of paper PMC10369915.
The list shows a part of the results. Cut-off read from the data, not from the text of the source: active = 3.2 or more and inactive = the rest. The signal is at background level for most entries.

B1: TNNI3_Y29 (peptide)
chain: SNYRAYATEPH
B2: TMEM230_Y110_R108C_YF (peptide)
chain: KGFCGYSFDDI
B3: TH_Y419 (peptide)
chain: GEVKAYGAGLL
B4: TKT_Y564_Y563D (peptide)
chain: VEDHDYEGGIG
B5: TNS1_Y793 (peptide)
chain: PPGRSYSPYDY
B6: TMEFF2_Y361 (peptide)
chain: QNTGHYSSDNT
B7: TMC2_Y209_YF (peptide)
chain: KQLFAYKMLMA
B8: TNS3_Y601_Q600H (peptide)
chain: VVAHHYSFAPD
B9: TMED3_Y85 (peptide)
chain: ETKKQYDSFTY
B10: TP53_Y126_C124R (peptide)
chain: SVTRTYSPALN
B11: TIMP3_Y195 (peptide)
chain: GYCSWYRGWAP
B12: TNS1_Y796_YF (peptide)
chain: RSFSPYDFQPC
B13: TP53_Y126_C124W (peptide)
chain: SVTWTYSPALN
B14: TIA1_Y383 (peptide)
chain: YRVAGYETQGG
B15: TMED3_Y85_D86N (peptide)
chain: ETKKQYNSFTY
B16: TP53_Y126_L130V (peptide)
chain: SVTCTYSPAVN
B17: TNIK_Y40_R43P_YF (peptide)
chain: TFGQVYKGPHV
B18: TP53_Y126_L130H (peptide)
chain: SVTCTYSPAHN
B19: TLR5_Y108 (peptide)
chain: GSSKIYFLHPD
B20: TOP1_Y723 (peptide)
chain: TSKLNYLDPRI
B21: TMCC2_Y473_S475G (peptide)
chain: VSSPKYGGDDE
B22: TJP2_Y479_D482E (peptide)
chain: NKEPRYQEEPP
B23: TIMP3_Y182 (peptide)
chain: YQSKHYACIRQ
B24: TP53_Y126_A129V (peptide)
chain: SVTCTYSPVLN
B25: TP53_Y126_L130R (peptide)
chain: SVTCTYSPARN
B26: TNC_Y1775 (peptide)
chain: IPGVEYLVSII
B27: TH_Y230_R233H (peptide)
chain: FSDQVYRQHRK
B28: TLR5_Y108_P112A (peptide)
chain: GSSKIYFLHAD
B29: TNNT2_Y251_E254D (peptide)
chain: LWQSIYNLDAE
B30: TNS3_Y601 (peptide)
chain: VVAHQYSFAPD
B31: TNNI3_Y29_H34Q (peptide)
chain: SNYRAYATEPQ
B32: TMEM230_Y112 (peptide)
chain: YRGYSYDDIPD
B33: TNS2_Y668_A670T (peptide)
chain: TGDFGYRTPGY
B34: TMEM43_Y233_Y233C (peptide)
chain: SENPKCPEVGD
B35: TMEM230_Y112_R108C (peptide)
chain: YCGYSYDDIPD
B36: THAP1_Y14_G9C (peptide)
chain: CCKNRYDKDKP
B37: TMIGD2_Y197 (peptide)
chain: YSNVLYRPRGA

Target: SHP2 C-SH2 domain E139D
Assay: enrichment score (SH2-bound / input frequency) (ratio); bacterial display of known human phosphotyrosine sites (pTyr-Var adds point mutants) read by sequencing; higher = stronger binding; tyrosines were phosphorylated by kinases first
Settings: peptide library: pTyr-Var
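Note: displayed peptides selected on beads carrying the immobilized SH2 domain, with library peptides lacking any tyrosine serving as negative controls.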

| Binder | enrichment score |
| --- | --- |
| B1 | inactive: 0.472 |
| B2 | inactive: 0.811 |
| B3 | inactive: 0.676 |
| B4 | inactive: 0.609 |
| B5 | inactive: 0.417 |
| B6 | inactive: 0.494 |
| B7 | inactive: 2.21 |
| B8 | inactive: 1.25 |
| B9 | inactive: 0.552 |
| B10 | inactive: 0.573 |
| B11 | inactive: 0.802 |
| B12 | inactive: 0.674 |
| B13 | inactive: 0.662 |
| B14 | inactive: 0.762 |
| B15 | inactive: 0.78 |
| B16 | inactive: 0.885 |
| B17 | inactive: 0.567 |
| B18 | inactive: 0.977 |
| B19 | inactive: 0.806 |

| Binder | enrichment score |
| --- | --- |
| B20 | inactive: 0.819 |
| B21 | inactive: 0.456 |
| B22 | inactive: 0.549 |
| B23 | inactive: 1.84 |
| B24 | inactive: 0.908 |
| B25 | inactive: 0.882 |
| B26 | inactive: 1.2 |
| B27 | inactive: 0.655 |
| B28 | inactive: 1.08 |
| B29 | inactive: 1 |
| B30 | inactive: 0.895 |
| B31 | inactive: 0.451 |
| B32 | inactive: 1.06 |
| B33 | inactive: 0.659 |
| B34 | inactive: 0.522 |
| B35 | inactive: 1.06 |
| B36 | inactive: 0.862 |
| B37 | inactive: 0.308 |

Target: SHP2 C-SH2 domain wild-type
Assay: as above
Settings: peptide library: pTyr-Var

| Binder | enrichment score |
| --- | --- |
| B1 | inactive: 0.428 |
| B2 | inactive: 0.889 |
| B3 | inactive: 0.602 |
| B4 | inactive: 0.616 |
| B5 | inactive: 0.676 |
| B6 | inactive: 0.419 |
| B7 | inactive: 1.9 |
| B8 | inactive: 1.55 |
| B9 | inactive: 0.489 |
| B10 | inactive: 0.811 |
| B11 | inactive: 1.02 |
| B12 | inactive: 0.759 |
| B13 | inactive: 0.7 |
| B14 | inactive: 0.532 |
| B15 | inactive: 0.593 |
| B16 | inactive: 1.2 |
| B17 | inactive: 0.538 |
| B18 | inactive: 1.22 |
| B19 | inactive: 0.789 |

| Binder | enrichment score |
| --- | --- |
| B20 | inactive: 0.938 |
| B21 | inactive: 0.499 |
| B22 | inactive: 0.477 |
| B23 | inactive: 2.5 |
| B24 | inactive: 1.78 |
| B25 | inactive: 1.11 |
| B26 | inactive: 1.09 |
| B27 | inactive: 0.537 |
| B28 | inactive: 1.02 |
| B29 | inactive: 1.62 |
| B30 | inactive: 0.705 |
| B31 | inactive: 0.541 |
| B32 | inactive: 0.853 |
| B33 | inactive: 0.567 |
| B34 | inactive: 0.508 |
| B35 | inactive: 1.26 |
| B36 | inactive: 0.952 |
| B37 | inactive: 0.233 |

Target: SHP2 N-SH2 domain L43F
Assay: as above
Settings: peptide library: pTyr-Var

| Binder | enrichment score |
| --- | --- |
| B1 | inactive: 0.391 |
| B2 | inactive: 0.783 |
| B3 | inactive: 0.65 |
| B4 | inactive: 0.579 |
| B5 | inactive: 0.64 |
| B6 | inactive: 0.487 |
| B7 | inactive: 1.98 |
| B8 | inactive: 1.52 |
| B9 | inactive: 0.451 |
| B10 | inactive: 0.705 |
| B11 | inactive: 0.813 |
| B12 | inactive: 0.563 |
| B13 | inactive: 0.673 |
| B14 | inactive: 0.382 |
| B15 | inactive: 0.592 |
| B16 | inactive: 1.05 |
| B17 | inactive: 0.449 |
| B18 | inactive: 0.959 |
| B19 | inactive: 0.648 |

| Binder | enrichment score |
| --- | --- |
| B20 | active: 3.71 |
| B21 | inactive: 0.536 |
| B22 | inactive: 0.527 |
| B23 | inactive: 1.69 |
| B24 | inactive: 1.4 |
| B25 | inactive: 0.81 |
| B26 | inactive: 1.14 |
| B27 | inactive: 0.373 |
| B28 | inactive: 0.98 |
| B29 | inactive: 1.02 |
| B30 | inactive: 2.32 |
| B31 | inactive: 0.431 |
| B32 | inactive: 0.854 |
| B33 | inactive: 0.49 |
| B34 | inactive: 0.627 |
| B35 | inactive: 0.925 |
| B36 | inactive: 0.946 |
| B37 | inactive: 0.354 |

Target: SHP2 N-SH2 domain T42A
Assay: as above
Settings: peptide library: pTyr-Var

| Binder | enrichment score |
| --- | --- |
| B1 | inactive: 0.366 |
| B2 | inactive: 0.734 |
| B3 | inactive: 0.535 |
| B4 | inactive: 0.595 |
| B5 | inactive: 0.678 |
| B6 | inactive: 0.536 |
| B7 | inactive: 1.72 |
| B8 | inactive: 1.09 |
| B9 | inactive: 0.503 |
| B10 | inactive: 0.484 |
| B11 | inactive: 0.834 |
| B12 | inactive: 0.682 |
| B13 | inactive: 0.745 |
| B14 | inactive: 0.49 |
| B15 | inactive: 0.585 |
| B16 | inactive: 0.703 |
| B17 | inactive: 0.582 |
| B18 | inactive: 0.734 |
| B19 | inactive: 0.9 |

| Binder | enrichment score |
| --- | --- |
| B20 | inactive: 2.85 |
| B21 | inactive: 0.342 |
| B22 | inactive: 0.591 |
| B23 | inactive: 1.62 |
| B24 | inactive: 1.03 |
| B25 | inactive: 0.621 |
| B26 | inactive: 1.33 |
| B27 | inactive: 0.418 |
| B28 | inactive: 1.01 |
| B29 | inactive: 1.33 |
| B30 | inactive: 0.783 |
| B31 | inactive: 0.449 |
| B32 | inactive: 0.871 |
| B33 | inactive: 0.476 |
| B34 | inactive: 0.531 |
| B35 | inactive: 0.988 |
| B36 | inactive: 0.685 |
| B37 | inactive: 0.35 |

Target: SHP2 N-SH2 domain T52S
Assay: as above
Settings: peptide library: pTyr-Var

| Binder | enrichment score |
| --- | --- |
| B1 | inactive: 0.445 |
| B2 | inactive: 0.663 |
| B3 | inactive: 0.499 |
| B4 | inactive: 0.614 |
| B5 | inactive: 0.4 |
| B6 | inactive: 0.454 |
| B7 | inactive: 2.03 |
| B8 | inactive: 1.55 |
| B9 | inactive: 0.433 |
| B10 | inactive: 0.661 |
| B11 | inactive: 0.906 |
| B12 | inactive: 0.643 |
| B13 | inactive: 0.612 |
| B14 | inactive: 0.51 |
| B15 | inactive: 0.591 |
| B16 | inactive: 0.781 |
| B17 | inactive: 0.762 |
| B18 | inactive: 0.651 |
| B19 | inactive: 1.02 |

| Binder | enrichment score |
| --- | --- |
| B20 | active: 4.15 |
| B21 | inactive: 0.44 |
| B22 | inactive: 0.658 |
| B23 | inactive: 1.51 |
| B24 | inactive: 0.816 |
| B25 | inactive: 0.801 |
| B26 | inactive: 1.19 |
| B27 | inactive: 0.7 |
| B28 | inactive: 1.02 |
| B29 | inactive: 1.11 |
| B30 | inactive: 2.42 |
| B31 | inactive: 0.432 |
| B32 | inactive: 0.823 |
| B33 | inactive: 0.556 |
| B34 | inactive: 0.478 |
| B35 | inactive: 0.949 |
| B36 | inactive: 1.4 |
| B37 | inactive: 0.216 |

Target: SHP2 N-SH2 domain wild-type
Assay: as above
Settings: peptide library: pTyr-Var

| Binder | enrichment score |
| --- | --- |
| B1 | inactive: 0.584 |
| B2 | inactive: 1.07 |
| B3 | inactive: 0.797 |
| B4 | inactive: 0.756 |
| B5 | inactive: 0.52 |
| B6 | inactive: 0.751 |
| B7 | inactive: 2.13 |
| B8 | inactive: 1.3 |
| B9 | inactive: 0.417 |
| B10 | inactive: 0.746 |
| B11 | inactive: 1.13 |
| B12 | inactive: 0.532 |
| B13 | inactive: 0.826 |
| B14 | inactive: 0.704 |
| B15 | inactive: 0.696 |
| B16 | inactive: 1.28 |
| B17 | inactive: 0.417 |
| B18 | inactive: 1.51 |
| B19 | inactive: 0.657 |

| Binder | enrichment score |
| --- | --- |
| B20 | inactive: 1.6 |
| B21 | inactive: 0.469 |
| B22 | inactive: 0.686 |
| B23 | inactive: 1.64 |
| B24 | inactive: 1.62 |
| B25 | inactive: 1.09 |
| B26 | inactive: 1.28 |
| B27 | inactive: 0.583 |
| B28 | inactive: 1.11 |
| B29 | inactive: 1.41 |
| B30 | inactive: 0.866 |
| B31 | inactive: 0.537 |
| B32 | inactive: 0.785 |
| B33 | inactive: 0.511 |
| B34 | inactive: 0.508 |
| B35 | inactive: 0.936 |
| B36 | inactive: 1.05 |
| B37 | inactive: 0.267 |
